Laboratory results published in the RNAGym collection of RNA variant scans (doi:10.1093/nar/gkz1192).
The source gives no read counts; variants with many changes may rest on few reads.

B1: CPEB3 Ribozyme (parent)
chain: UAACAGGGGGCCACAGCAGAAGCGUUCACGUCGCAGCCCCUGUCAGAUUCUGGUGAAUCUGCGAAUUCUGCUGUAUAUCUC

Variants of: B1
Assay: self-cleavage, relative activity (ratio to wild type); higher = more cleavage; in vitro, sequencing
How it was run: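 For each CPEB3 ribozyme variant, relative activity is its cleaved/total read fraction divided by the unmutated ribozyme's. Barcoded error-prone PCR libraries were transcribed by T7 RNA polymerase (5 hours, 37°C) and held in DNase I for 15 min before an EDTA stop, with cleavage occurring throughout. Template-switching reverse transcription and Illumina sequencing were used to read the RNAs. A 5-read minimum applied, and results are the mean of three batches.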
With UAACAGGGGGCCACAGCAGAAGCGUACACGUCGCAGCCCCUUUCAGAUCCUGGUGACUCUGCGAAUACUGCUGUAUAUCUC the self-cleavage was 0.06. For UAACAGGGGGCCACAGCAGAAGCGUACACGUCGCAGCCCCUGUCAGAUUCUGGUGAAUCUGCAAAUACUGCUGUAUAUCUC, the self-cleavage was 0.29. UAACAGGGGGCCACAGCAGAAGCGUACACGUCGCAGCCCCUGUCAGAUUCUGGUGAAUCUGCAAAUCCUGCUGUAUAUCUC gave a self-cleavage of 0.25. Variant UAACAGGGGGCCACAGCAGAAGCGUACACGACGCAGCCCCUGUCGGAUUCUGGUGAAUCUGCGAAUUCUGCUGUAUAUCUC has a self-cleavage of 0.32. For UAACAGGGGGCCACAGCAGAAGCGUACACGACGCAGCCCCCGUCAGCCUCUGGUGAAUCUGCGAAUUCUGCUGUAUAUCAC, the self-cleavage was 0.05. UAACAGGGGGCCACAGCAGAAGCGUACACGACGCAGCCCCUGUCAGAUUCUGGUGAAUCUGCGAACUCUGCUGUAUAUCUC showed a self-cleavage of 0.08. Variant UAACAGGGGGCCACAGCAGAAGCGUACACGACGCAGCCCCUGUCAGAUUCUGGUGAAUCUGCGAAUUCUGCUGUAUAUCAC has a self-cleavage of 0.6. In the case of UAACAGGGGGCCACAGCAGAAGCGUACACGCCGCAGCCCCUGUCAGAUUCUGGUGAAUCUGCGAAUCCUGCUGUAUAUCUC, the self-cleavage is reported as 0.14. UAACAGGGGGCCACAGCAGAAGCGUACACGUCGCAGCCCCAGUCAGAUUCUGGUGAAUCUGCGAAUCCUGCUGUAUAUCUC showed a self-cleavage of 0.14. Work on UAACAGGGGGCCACAGCAGAAGCGUACACGUCGCAGCCCCCGUCAGAUUCUGGUGUAUCCGCGAAUUCUGCUGUAUACCUC yielded a self-cleavage of 0.16. Work on UAACAGGGGGCCACAGCAGAAGCGUACACGUCGCAGCCCCCAUCUGAUUCUGGUGAAUCUGCGAAUUCUGCUGUAUAUCUC yielded a self-cleavage of 0.41. For UAACAGGGGGCCACAGCAGAAGCGUACACGUCGCAGCCCCCGUCAGAUUCGGGUGAAUCUGCGAAUUCAGCUGUAUAUCAC, the self-cleavage was 0.39. With UAACAGGGGGCCACAGCAGAAGCGUACACGUCGCAGCCCCUGACGGAUUCUGGUGAAUCUGCGGAUUAUGCUGUAUAUCCC the self-cleavage was 0.52. UAACAGGGGGCCACAGCAGAAGCGUACACGUCGCAGCCCCUGACAGAUUCUGGUGAAUCUGCGAAUUCUCCUGUAUAUCUC showed a self-cleavage of 0.11. UAACAGGGGGCCACAGCAGAAGCGUACACGUCGCAGCCCCUGCCAGACUCUGGUGAAACAGCGAAUUCUGCGGUAUAUCUC showed a self-cleavage of 0.1. Variant UAACAGGGGGCCACAGCAGAAGCGUACACGUCGCAGCCCCUGCCAGAUUCCGGUGAAUCUGCGAAUUCUGCUGUUUAUCUC has a self-cleavage of 0.15. UAACAGGGGGCCACAGCAGAAGCGUACACGUCGCAGCCCCUGCCAGAUUCUGGAGAAUCUGCGAAUUCUGCGGUAUAUCUC gave a self-cleavage of 0.31. Work on UAACAGGGGGCCACAGCAGAAGCGUACACGUCGCAGCCCCUGCCAGAUUCUGGUGAAUCUGCGAAUUCCGCGGUAUAUCUC yielded a self-cleavage of 0.16. Variant UAACAGGGGGCCACAGCAGAAGCGUACACGUCGCAGCCCCUGUCAGAAUCCGGUGAAUCUGCGAAUUCUGCUGUAUAUCUC has a self-cleavage of 0.19. UAACAGGGGGCCACAGCAGAAGCGUACACGUCGCAGCCCCUGUCAGACUCCGGUGAAUCUGCGGAUUCUGUUGUAUAUCUU showed a self-cleavage of 0.13. Variant UAACAGGGGGCCACAGCAGAAGCGUACACGUCGCAGCCCCUGUCAGACUCUGGUGAAUCUGCGAAUUCUGCUGCAUAUCUC has a self-cleavage of 1.12. With UAACAGGGGGCCACAGCAGAAGCGUACACGUCGCAGCCCCUGUCAGAUACUGGUGAAUCUGCGAACUCUGCUGUAUAUCUC the self-cleavage was 0.16. UAACAGGGGGCCACAGCAGAAGCGUACACGUCGCAGCCCCUGUCAGAUCCUGGUGAAUCUGCGUAUUCUGCUGUAUAUCUC showed a self-cleavage of 0.16. Variant UAACAGGGGGCCACAGCAGAAGCGUACACGUCGCAGCCCCUGUCAGAUCCUGGAGAAUCUGCGAAUUCUGCUGCAUAUCUC has a self-cleavage of 0.6. Work on UAACAGGGGGCCACAGCAGAAGCGUACACGUCGCAGCCCCUGUCAGAUCCUGGGGGAUCUGCGAAUUCUGCUGUAUAUCUC yielded a self-cleavage of 0.64. With UAACAGGGGGCCACAGCAGAAGCGUACACGUCGCAGCCCCUGUCAGAUCCUGGGGAAUCUGCGAGUUCUGCUGUAUAUCUC the self-cleavage was 0.07. With UAACAGGGGGCCACAGCAGAAGCGUACACGUCGCAGCCCCUGUCAGAUCCUGGUGAAUCUGCGAACUCUGCUGUAUAUCUC the self-cleavage was 0.11. Variant UAACAGGGGGCCACAGCAGAAGCGUACACGUCGCAGCCCCUGUCAGAUCCUGGUGAAUCUGCGAAUUCUGCUGUACAUCUC has a self-cleavage of 0.22. Work on UAACAGGGGGCCACAGCAGAAGCGUACACGUCGCAGCCCCUGUCAGAUUCCGGUGAAUCUGCGAAUUCUGCUGUAUGUCUC yielded a self-cleavage of 0.94. For UAACAGGGGGCCACAGCAGAAGCGUACACGUCGCAGCCCCUGUCAGAUUCUGGAGAAUCAGCGAUUCCUGCUGUAUAUCUC, the self-cleavage was 0.36. In the case of UAACAGGGGGCCACAGCAGAAGCGUACACGUCGCAGCCCCUGUCAGAUUCUGGAGAAUCUGCGAAUUCUGCUGUAUACCUC, the self-cleavage is reported as 0.87. With UAACAGGGGGCCACAGCAGAAGCGUACACGUCGCAGCCCCUGUCAGAUUCUGGUGAACCUGCGAGUACUGCUGUAUAUCUC the self-cleavage was 0.15. For UAACAGGGGGCCACAGCAGAAGCGUACACGUCGCAGCCCCUGUCAGAUUCUGGUGAAUCAGCGAAUUCUGCUGUACACCUC, the self-cleavage was 0.41. UAACAGGGGGCCACAGCAGAAGCGUACACGUCGCAGCCCCUGUCAGAUUCUGGUGAAUCCGCGAAUUCUGCCGUAUACCUC showed a self-cleavage of 0.15. In the case of UAACAGGGGGCCACAGCAGAAGCGUACACGUCGCAGCCCCUGUCAGAUUCUGGUGAAUCUGCGAACUCUGCUGUAUGUCUC, the self-cleavage is reported as 0.16. UAACAGGGGGCCACAGCAGAAGCGUACACGUCGCAGCCCCUGUCAGAUUCUGGUGAAUCUGCGAAUCCUGCUGUGUGUCUC showed a self-cleavage of 0.16. With UAACAGGGGGCCACAGCAGAAGCGUACACGUCGCAGCCCCUGUCAGAUUCUGGUGAAUCUGCGAAUUCAGCUGUUUAUCUC the self-cleavage was 0.4. Variant UAACAGGGGGCCACAGCAGAAGCGUACACGUCGCAGCCCCUGUCAGAUUCUGGUGAAUCUGCGAAUUCAGCUGUACAUCUC has a self-cleavage of 0.58. UAACAGGGGGCCACAGCAGAAGCGUCCCCGUCGCAGCCCCUGUCAGAUUCUGGUGAAUCUGCGAAUUCUGUUGUGUAUCUC showed a self-cleavage of 0.16. Variant UAACAGGGGGCCACAGCAGAAGCGUCCGCGUCGCGGCCCCUGUCAGAUUCUGGUGAAUCUGCGAAUUCUGCUGUAUAUCUC has a self-cleavage of 0.54. UAACAGGGGGCCACAGCAGAAGCGUCCGCGUCGCGGCCCCUGUCAGAUUCUGGUGAAUCUGCGAAUUCUGCCGUAUAUCUC showed a self-cleavage of 0.81. In the case of UAACAGGGGGCCACAGCAGAAGCGUCCGCGUCGCAGCCCCUGUCGGAUUCUGGUGAAUCUGCGAAUUCUGCUGUAUUUCUC, the self-cleavage is reported as 0.07. UAACAGGGGGCCACAGCAGAAGCGUCCGCGUCGCAGCCCCUGUCAGAUUCUGGUGGAUCUGCGAAUUCUGCUGUAUAUCUC gave a self-cleavage of 0.18. For UAACAGGGGGCCACAGCAGAAGCGUCCGGGUCGCAGCCCCUGUCAGACUCUGGUGAAUCUGCGAAUUCUGCUGUAUAUCUC, the self-cleavage was 0.18. Variant UAACAGGGGGCCACAGCAGAAGCGUCCGCGUUGCAGCCCCUGUCAGAUUCUGGUGAAACUGCGAAUUCUGCUGUACAUCCC has a self-cleavage of 0.09. In the case of UAACAGGGGGCCACAGCAGAAGCGUCCGCGCCGCAGCCCCUGUCAGAUUCUGGUGAAUCUGCGAAUUCUGCUGUAUAUCUC, the self-cleavage is reported as 0.22. In the case of UAACAGGGGGCCACAGCAGAAGCGUCCGCGCCGCAGCCCCUGUCAGAUUCUGGCGAACCUGCGAAUUCUGCUGUACAUCCC, the self-cleavage is reported as 0.17. Variant UAACAGGGGGCCACAGCAGAAGCGUCCGCGUCGCAGCCCCCGUCAGAUUCUGGUGAAUCUGCGAAUCCUGCUGUAUAUCUC has a self-cleavage of 0.37. UAACAGGGGGCCACAGCAGAAGCGUCCGCGUCGCAGCCCCGGUCAGAUUCUGGUGAAUCUGCGUAUUCUGCUGUACUUCUC showed a self-cleavage of 0.15. Work on UAACAGGGGGCCACAGCAGAAGCGUCCGCGUCGCAGCCCCUGUCAGAUUCUGGUGAACCUGCGAAUUCUGAUGUAUAUCCC yielded a self-cleavage of 0.12. UAACAGGGGGCCACAGCAGAAGCGUCCGCGUCGCAGCCCCUGUCAGAUUCUGGUGAAUCAGCGAAUUCUGCUCUAUAUCUC gave a self-cleavage of 0.17. With UAACAGGGGGCCACAGCAGAAGCGUCCGCGUCGCAGCCCCUGUCAGAUUCUGGUGAAUCCGCGAACUCCGCUGUAUAUCUC the self-cleavage was 0.09. Work on UAACAGGGGGCCACAGCAGAAGCGUCCGCGUCGCAGCCCCUGUCAGAUUCUGGUGAAUCGGCGAAUUCUGCUGUAUAUCUC yielded a self-cleavage of 0.15. With UAACAGGGGGCCACAGCAGAAGCGUCCGCGUCGCAGCCCCUGUCAGAUUCUGGUGAAUCUGCGAAUUCUGCCGUAUCUCUC the self-cleavage was 0.21. With UAACAGGGGGCCACAGCAGAAGCGUCCUCCUCGCAGCCCCUGUCAGAUUCUGGUGAAUCUGCGAAUUCUGCUGUAUAUCUC the self-cleavage was 0.16. Work on UAACAGGGGGCCACAGCAGAAGCGUCCUCGUCGCAGCCCCUUUCAGAUUCUGGUGUAUCUGCGAAUUCUGCUGUAUAUCUC yielded a self-cleavage of 0.21. UAACAGGGGGCCACAGCAGAAGCGUCCUCGUCGCAGCCCCUGUCAGAUUCUGGCGAAUCUGCGAAUUCUGCUGUAUGUCUC gave a self-cleavage of 0.17. UAACAGGGGGCCACAGCAGAAGCGUCCUCGUCGCAGCCCCUGUCAGAUUCUGGCGAAUCUGCGAAUUCUGUUGUAUAUCUC showed a self-cleavage of 0.09. With UAACAGGGGGCCACAGCAGAAGCGUCCACGUCGCCGCCCCUGUCAGGUUCUGGUGAAUCUGCGAAUUCUGCUGUAUAUCUC the self-cleavage was 0.47. In the case of UAACAGGGGGCCACAGCAGAAGCGUCCACGUCGCGGCCCCUGUCAGAUUCUGGUGUAUCUGCGAAUCCUGCUGUAUAUCUC, the self-cleavage is reported as 0.43. Work on UAACAGGGGGCCACAGCAGAAGCGUCCACGUCGCGGCUCCUGUCAGAUUCUAGUGAAUCUGCGAAUUCUGCUGUAUAUCUC yielded a self-cleavage of 1.1. Variant UAACAGGGGGCCACAGCAGAAGCGUCCACGUCGCGGCCCCCGUCAGGUUCUGGUGAAUCUACGAAUUCUGCUGUAUAUCUC has a self-cleavage of 0.31. Variant UAACAGGGGGCCACAGCAGAAGCGUCCACGUCGCGGCCCCUGACGGAUUCUGGAGAACCUGCGAAUUCUGCUGUAUAUCUC has a self-cleavage of 0.18. For UAACAGGGGGCCACAGCAGAAGCGUCCACGUCGCGGCCCCUGCCAGAUUCUGGUGAAUCUGCGAAUUCUGCUGUAUAUCUC, the self-cleavage was 1.25. In the case of UAACAGGGGGCCACAGCAGAAGCGUCCACGUCGCGGCCCCUGCCAGAUUCUGGUGGAUCUGCGAAUUCUGCUGUAUAUCUC, the self-cleavage is reported as 0.91. In the case of UAACAGGGGGCCACAGCAGAAGCGUCCACGUCGCGGCCCCUGUCAGAUUCUGGUGAAUCUGCGAAUACUGCAGUAUAUCUA, the self-cleavage is reported as 0.68. For UAACAGGGGGCCACAGCAGAAGCGUCCACGUCGCGGCCCCUGUCAGAUUCUGGUGAAUCUGCGAAUUCAGCUGUAUAUCUC, the self-cleavage was 0.61. Variant UAACAGGGGGCCACAGCAGAAGCGUCCACGUCGCGGCCCCUGUCAGAUUCUGGUGAAUCUGCGAAUUCUGCUGUAUACCUC has a self-cleavage of 1.16.
